In PubChem BioAssay AID588334 (Broad Institute, 2011):
Among all 300,000 compounds or so, about 2,300 (0.77%) were called active. Inconclusive results, whose numbers are uncertain, are shown with a selection of clear calls.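 The calls were made as follows: active = mean activation of at least 80% with every replicate also reaching 80%; inconclusive = mean reaches 80% but some replicate falls short; inactive = the rest.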

Assay: MITF-driven TRPM1 luciferase induction in melanoma cells – cell-based, SK-MEL-5, single point, primary screen (AID 588334);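 also: 0% = neutral control wells and 100% = parthenolide positive control wells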
Settings: SK-MEL-5 TRPM1-promoter luciferase, 24 h; at 12.5 µM; stronger effect = higher value; % of positive control, neutral wells = 0

activation, active:
COc1cc(/C=C(\C#N)C(=O)Nc2cccc(C(=O)O)c2)ccc1OCc1ccc(C)cc1 91.1%, c1ccc2oc(-c3ccc4nc[nH]c4c3)nc2c1 98.1%, Cc1nn2cc(-c3ccc(Cl)cc3)cnc2c1Br 132%, CCc1nnc(NC(=O)CSc2ccc(-c3nc4ccccc4[nH]3)cn2)s1 87.1%, O=C(CSc1nnc(-c2cccc(Cl)c2)o1)Nc1ccc2c(c1)OCCO2 88.4%, CCCCN1C(=O)/C(=C2\SC(N3CCCCC3)=NC2=O)c2ccccc21 107%, Nc1nc(Nc2ccccc2F)nc(N2CCCC2)c1[N+](=O)[O-] 87.8%, COc1ccc(Nc2ncnc3ccccc23)cc1 96.8%, CN(C(=O)C1CCC(=O)N(Cc2cccc(F)c2)C1)C1CCCCC1 (centres undefined) 97.8%, CCCN(CCC)c1nc2ccccc2nc1C(C#N)C(=O)OCCOC (centres undefined) 90.9%, Cc1ccc(Cl)c(OCC(=O)Nc2ccc3c(c2)OCCO3)c1 131%, N#Cc1ccsc1NC(=O)COC(=O)c1ccc(NC(N)=O)cc1 87.2%, CCCc1ccc2oc(C(=O)N3CCC(COC)C3)c(C)c2c1 (centres undefined) 103%, Cc1ccccc1C(=O)NCCSc1ccccc1 95.6%, CC(C)c1cc(C(=O)Nc2cccc(Cl)c2)no1 89.6%, CCOC(=O)c1nn(-c2ccc3c(c2)OCO3)cc1O 90%, O=C(/C=C/c1c(Cl)cccc1Cl)Nc1ccncc1 88.5%, NC(=O)c1ccc(NC(=O)c2ccc3c(c2)OCO3)cc1 88.3%

activation, inactive:
O=C1/C(=C/c2cccc(Cl)c2)CSc2sccc21 -4.69%, CC(C)CCNC(=O)C1CC(c2cccc([N+](=O)[O-])c2)=NO1 (centres undefined) 1.53%, Cc1cccc(N2CCN(Cc3nc(-c4cccc(Cl)c4)oc3C)CC2)n1 -7.64%, Cc1ccc(-c2n[nH]c(=S)n2/N=C/C=C\c2ccccc2[N+](=O)[O-])cc1 -1.05%, COc1cccc(Cn2nnc(C(=O)NCCc3ccc(Cl)cc3)c2N)c1 5.16%, CCOc1cc(-c2sc(Nc3ccccc3)n[n+]2C)ccc1OC 7.26%, CC(c1nccs1)N(C)C(=O)c1cn(Cc2cccc3ccccc23)nn1 (centres undefined) 43.3%, O=C(CNCc1ccccc1Cl)NCc1ccco1 2.74%, COc1cccc(CN2CCc3ccc(NC(=O)CCc4ccc(C)cc4)cc3C2)c1O 6.38%, O=C(Nc1ccccc1)c1ccc(NC(=O)C2CC2)cc1 78.4%, Fc1ccccc1N1CCN(Cc2nc(-c3ccccc3)no2)CC1 2.03%, CC(Cc1ccccc1)N/C=C1/CC(=O)NC1=O (centres undefined) -4.47%, O=C(NCc1ccco1)C(=S)N1CCCCC1 -2.95%, C[C@@]12C(=O)Nc3ccc(F)cc3C(=O)N1[C@H]1c3cc(Br)ccc3OC[C@@H]1[C@@H]2c1ccccc1 -20.9%, Fc1ccccc1-c1nc(-c2ccc(Cl)cc2)no1 45.5%, COc1ccc(OC)c(NC(=O)NCCc2cccc(Cl)c2)c1 -4.46%, CCc1nnc(NC(=O)CCC(=O)N2CCN(Cc3ccc(C)cc3C)CC2)s1 1.86%, O=C(CSc1ccc(Cl)cc1)N/N=C/c1ccc([N+](=O)[O-])o1 -61.4%, O=C(COC(=O)c1ccc(Cl)nc1)NC1CCCCCC1 2.85%, COc1ccccc1Nc1ccc(N)cc1 -1.13%, CN(C)CCCn1c(=O)n(C2CCCCC2)c(=O)c2c3c(sc21)CCCCC3 2%, O=C(NCCOC(=O)c1ccncc1)c1ccccc1 -2.82%, O=C(NCCOC(=O)c1ccc([N+](=O)[O-])cc1)c1cccnc1 -5.73%, COCC(C)NS(=O)(=O)c1ccc(C)cc1 (centres undefined) -9.98%, COc1ccc(Nc2c3c(nc4ccccc24)CCC3)c(OC)c1 -20.2%, CC1(C)c2[nH]c3ccccc3c2C[C@H]2C(=O)N(Cc3cccc(F)c3)C(=O)N21 -35.6%, O=C1NCCN/C1=C\C(=O)c1ccc(F)cc1 26.1%, Cc1ccccc1Nc1nn2c(=O)c3ccccc3nc2s1 43.1%, CN(CC(=O)Nc1cccc(F)c1)CC(=O)NC(c1ccccc1)c1ccccc1 14.4%, Cc1ccc(C)c(N2CCN(c3ncnc4c3cnn4-c3ccccc3)CC2)c1 7.15%

activation, inconclusive:
O=C(Nc1ccc(Br)cc1Cl)c1ccc2c(=O)n3c(nc2c1)CCC3 103%, N/C(=N\C(=S)Nc1ccccc1)c1ccccc1 122%, Cc1ccc(OC(=O)c2c(C)nn(-c3ccccc3)c2C)cc1 83.6%, CCCOc1ccc(-c2cn3ccccc3n2)cc1[N+](=O)[O-] 86.1%, N#C/C(C(=O)N1CCCCC1)=C1\Nc2ccccc2S1 83.5%, Cc1cc(C(=O)N/N=C/c2cccc([N+](=O)[O-])c2)c(C)n1-c1ccccc1 84%, CC(=O)c1cccc(NC(=S)NC(=O)c2ccccc2)c1 85.2%, CCCC(=O)Nc1ccc2oc(-c3ccc(OC)c(Br)c3)nc2c1 81.8%, CC1CCN(C(=O)CSc2nc3ccccc3[nH]2)CC1 82.4%, COc1ccccc1C(=O)Nc1nnc(SCC(=O)NCC2CCCO2)s1 (centres undefined) 82.2%, CC(C)C(=O)Nc1ccc(-c2nnc(-c3ccccc3)o2)cc1 81.7%, CCc1nc(NC(C)(C)C)c2cnn(-c3ccccc3)c2n1 84.5%, O=C(OCC(=O)N1CCN(c2ccccc2)CC1)c1ccccc1[N+](=O)[O-] 83.2%, COC(=O)Cc1ccc(NC(=O)c2ccc(C)c(C)c2)cc1 83.5%, O=C(Nc1ccc(N2CCCC2)c(Cl)c1)c1cccnc1 81.3%, CCCCNc1c(-c2ccc(SC(C)CC)cc2)nc2ccccn12 (centres undefined) 84.6%, O=C(c1ccco1)N1CCC(c2ccccc2)C1 (centres undefined) 83.9%, O=C(Nc1nccs1)C(=O)c1c[nH]c2ccccc12 103%, CC(C)c1ccc(/C=C/C(=O)N2CCOCC2)cc1 86%, Cc1csc2nc(CSc3nc4ccccc4o3)cn12 89%, Clc1ccc(-c2cnnc(-c3ccccn3)n2)cc1 90.9%, Cc1ccc(NC(=O)Nc2ccc3c(c2)CCC3)cc1 82.7%, COc1ccc2c(c1)OC/C(=C/c1cccs1)C2=O 88.1%, CC(=O)C(C)Oc1ccc2c3c(c(=O)oc2c1)CCCCC3 (centres undefined) 89.2%, Cc1ccc(C(=O)NC(C)(COc2nonc2C)COc2nonc2C)cc1 92.9%, O=C(N[C@@H](Cc1ccccc1)C(=O)NC1CCCCCC1)c1ccco1 82.9%, COC(=O)Cc1c(C)c2ccc(OCC(C)=O)c(C)c2oc1=O 86.5%, N#Cc1ccsc1NC(=O)CCc1ccccc1 81.8%, COc1ccc(Nc2oc(-c3ccccc3F)nc2C#N)cc1 82.9%, N#Cc1ccccc1NC(=O)c1ccc(-c2ccccc2Cl)o1 80%, O=C(Nc1ccc2c(c1)OCO2)c1cnc2n(c1=O)CCS2 83%, Brc1ccccc1-n1nnc(-c2cccnc2)n1 80.6%, Cc1ccc2c(c1)[nH]c1c(=O)n(Cc3ccco3)cnc12 85.9%, CCCCNc1ccc(C(=O)Nc2cccc(C)n2)cc1[N+](=O)[O-] 85.6%, CC(=O)N/N=C\c1ccccc1OC/C=C/c1ccccc1 80.4%, COc1ccc(C2CC(C(F)(F)F)n3nc(C(=O)NCCN4CCOCC4)cc3N2)cc1 (centres undefined) 91.7%, CNC(=O)C(=O)Nc1nc(C23CC4CC(CC(C4)C2)C3)cs1 83.2%, CCOc1ccc(Nc2cc(C)c3ccccc3n2)cc1 96.2%, O=C(Nc1ccc2c(c1)CCC2)c1cnccn1 86.2%, CCCN1C(=O)c2cccc3c(N4CCCCC4)ccc(c23)C1=O 80.9%, O=C(N/N=C/c1ccccn1)c1c[nH]c2ccccc12 82.1%, N/C(=N\OC(=O)c1ccc(Cl)cc1)c1ccn[nH]1 80.2%, CC(C)(C)C(=O)N/C(N)=N/c1nc2ccccc2o1 83.2%, CC(=O)c1sc(N/N=C\c2ccc(C)cc2)nc1C 87.2%, CN(CC(=O)N1CCc2ccccc21)S(=O)(=O)c1cccs1 80.4%, Cc1ccc2nc(-c3ccc(NS(=O)(=O)c4c(C)n(C)c(=O)n(C)c4=O)cc3)sc2c1 80.2%, Cc1ccc(C(=O)Nc2cccc(O)c2)cc1S(=O)(=O)N1CCCCCC1 93%, O=C(Nc1cccc(F)c1)Nc1ccc2c(c1)CCC2 83.4%, O=C(NCCc1cccs1)c1cccs1 89.6%, COc1cccc(NC(=O)Nc2ccc(C)c(Cl)c2)c1 80.5%, O=C(NC(=S)Nc1cccnc1)c1cc2ccccc2o1 81.3%
